According to the supplement of paper PMC8728848:
This is one part of the list.

What was measured:
Experiment in all cases: glycan array binding signal (z-score within array); higher = stronger binding
Details in all cases: glycan notation: IUPAC condensed, linker removed
Gal(b1-3)GlcNAc = biological target: Gal(b1-3)GlcNAc
In short: (§1)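 The binding signal is a Z-score computed within each array and averaged over linkers. Arrays of the same protein sequence at different concentrations or buffers were also averaged together. Data originate from 3228 arrays in the Consortium for Functional Glycomics database, kept only where the protein sequence was available.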

[1] = biological target: Gal(b1-3)GlcNAc(b1-3)Gal(b1-4)Glc
In short: as §1

[2] = biological target: Gal(b1-3)GlcNAc(b1-3)Gal(b1-4)GlcNAc(b1-3)Gal(b1-4)Glc
In short: as §1

[3] = biological target: Gal(b1-3)GlcNAc(b1-3)Gal(b1-4)GlcNAc(b1-6)[Gal(b1-3)GlcNAc(b1-3)]Gal(b1-4)Glc
In short: as §1

[4] = biological target: Gal(b1-3)GlcNAc(b1-3)Gal(b1-4)[Fuc(a1-3)]GlcNAc(b1-3)Gal(b1-4)Glc
In short: as §1

[5] = biological target: Gal(b1-3)GlcNAc(b1-3)Gal(b1-4)[Fuc(a1-3)]GlcNAc(b1-6)[Gal(b1-3)GlcNAc(b1-3)]Gal(b1-4)Glc
In short: as §1

[6] = biological target: Gal(b1-3)GlcNAc(b1-3)[Fuc(a1-3)[Gal(b1-4)]GlcNAc(b1-6)]Gal(b1-4)Glc
In short: as §1

[7] = biological target: Gal(b1-3)GlcNAc(b1-3)[Fuc(a1-3)[Gal(b1-4)]GlcNAc(b1-6)]Gal(b1-4)]GlcNAc(b1-6)[Gal(b1-4)]GlcNAc(b1-3)]Gal(b1-4)Glc
In short: as §1

[8] = biological target: Gal(b1-3)GlcNAc(b1-3)[Gal(b1-4)GlcNAc(b1-6)]Gal(b1-4)Glc
In short: as §1

[9] = biological target: Gal(b1-3)GlcNAc(b1-3)[Gal(b1-4)GlcNAc(b1-6)]Gal(b1-4)GlcNAc(b1-6)[Gal(b1-3)GlcNAc(b1-3)]Gal(b1-4)Glc
In short: as §1

[10] = biological target: Gal(b1-3)[Fuc(a1-4)]GlcNAc
In short: as §1

[11] = biological target: Gal(b1-3)[Fuc(a1-4)]GlcNAc(b1-3)Gal(b1-4)Glc
In short: as §1

[12] = biological target: Gal(b1-3)[Fuc(a1-4)]GlcNAc(b1-3)Gal(b1-4)[Fuc(a1-3)]Glc
In short: as §1

[13] = biological target: Gal(b1-3)[Fuc(a1-4)]GlcNAc(b1-3)Gal(b1-4)[Fuc(a1-3)]GlcNAc(b1-3)Gal(b1-4)Glc
In short: as §1

[14] = biological target: Gal(b1-3)[Fuc(a1-4)]GlcNAc(b1-3)Gal(b1-4)[Fuc(a1-3)]GlcNAc(b1-6)[Gal(b1-3)[Fuc(a1-4)]GlcNAc(b1-3)]Gal(b1-4)Glc
In short: as §1

[15] = biological target: Gal(b1-3)[Fuc(a1-4)]GlcNAc(b1-3)[Fuc(a1-3)[Gal(b1-4)]GlcNAc(b1-6)]Gal(b1-4)Glc
In short: as §1

[16] = biological target: Gal(b1-3)[Neu5Ac(a2-6)]GlcNAc(b1-3)Gal(b1-4)Glc
In short: as §1

Gal(b1-4)Glc = biological target: Gal(b1-4)Glc
In short: as §1

Gal(b1-4)GlcNAc = biological target: Gal(b1-4)GlcNAc
In short: as §1

[17] = biological target: Gal(b1-4)GlcNAc(b1-2)Man(a1-3)[Gal(b1-4)GlcNAc(b1-2)Man(a1-6)]Man(b1-4)GlcNAc(b1-4)GlcNAc
In short: as §1

[18] = biological target: Gal(b1-4)GlcNAc(b1-2)Man(a1-3)[Gal(b1-4)GlcNAc(b1-2)Man(a1-6)]Man(b1-4)GlcNAc(b1-4)[Fuc(a1-6)]GlcNAc
In short: as §1

[19] = biological target: Gal(b1-4)GlcNAc(b1-2)Man(a1-3)[Gal(b1-4)GlcNAc(b1-2)Man(a1-6)][GlcNAc(b1-4)]Man(b1-4)GlcNAc(b1-4)[Fuc(a1-6)]GlcNAc
In short: as §1

[20] = biological target: Gal(b1-4)GlcNAc(b1-2)Man(a1-3)[Man(a1-6)]Man(b1-4)GlcNAc(b1-4)GlcNAc
In short: as §1

[21] = biological target: Gal(b1-4)GlcNAc(b1-2)Man(a1-6)[GlcNAc(b1-2)Man(a1-3)]Man(b1-4)GlcNAc(b1-4)[Fuc(a1-6)]GlcNAc
In short: as §1

[22] = biological target: Gal(b1-4)GlcNAc(b1-2)Man(a1-6)[Man(a1-3)]Man(b1-4)GlcNAc(b1-4)GlcNAc
In short: as §1

[23] = biological target: Gal(b1-4)GlcNAc(b1-2)Man(a1-6)[Man(a1-3)]Man(b1-4)GlcNAc(b1-4)[Fuc(a1-6)]GlcNAc
In short: as §1

[24] = biological target: Gal(b1-4)GlcNAc(b1-2)[Gal(b1-4)GlcNAc(b1-4)]Man(a1-3)[Fuc(a1-3)[Gal(b1-4)]GlcNAc(b1-2)Man(a1-6)]Man(b1-4)GlcNAc(b1-4)GlcNAc
In short: as §1

[25] = biological target: Gal(b1-4)GlcNAc(b1-2)[Gal(b1-4)GlcNAc(b1-4)]Man(a1-3)[Gal(b1-4)GlcNAc(b1-2)Man(a1-6)]Man(b1-4)GlcNAc(b1-4)GlcNAc
In short: as §1

[26] = biological target: Gal(b1-4)GlcNAc(b1-2)[Gal(b1-4)GlcNAc(b1-4)]Man(a1-3)[Gal(b1-4)GlcNAc(b1-2)[Gal(b1-4)GlcNAc(b1-6)]Man(a1-6)]Man(b1-4)GlcNAc(b1-4)GlcNAc
In short: as §1

Gal(b1-4)GlcNAc(b1-3)Fuc = biological target: Gal(b1-4)GlcNAc(b1-3)Fuc
In short: as §1

[27] = biological target: Gal(b1-4)GlcNAc(b1-3)Gal(b1-4)Glc
In short: as §1

[28] = biological target: Gal(b1-4)GlcNAc(b1-3)Gal(b1-4)GlcNAc(b1-3)Gal(b1-4)Glc
In short: as §1

[29] = biological target: Gal(b1-4)GlcNAc(b1-3)[Fuc(a1-3)[Gal(b1-4)]GlcNAc(b1-6)]Gal(b1-4)Glc
In short: as §1

[30] = biological target: Gal(b1-4)GlcNAc(b1-3)[Gal(b1-4)GlcNAc(b1-6)]Gal(b1-4)Glc
In short: as §1

[31] = biological target: Gal(b1-4)GlcNAc(b1-3)[Gal(b1-4)GlcNAc(b1-6)]Gal(b1-4)GlcNAc(b1-3)Gal(b1-4)Glc
In short: as §1

[32] = biological target: Gal(b1-4)GlcNAc(b1-3)[Gal(b1-4)GlcNAc(b1-6)]Gal(b1-4)GlcNAc(b1-3)[Gal(b1-4)GlcNAc(b1-6)]Gal(b1-4)GlcNAc(b1-3)Gal(b1-4)Glc
In short: as §1

[33] = biological target: Gal(b1-4)GlcNAc(b1-3)[Gal(b1-4)GlcNAc(b1-6)]Gal(b1-4)GlcNAc(b1-3)[Gal(b1-4)GlcNAc(b1-6)]Gal(b1-4)GlcNAc(b1-3)[Gal(b1-4)GlcNAc(b1-6)]Gal(b1-4)GlcNAc(b1-3)Gal(b1-4)Glc
In short: as §1

[34] = biological target: Gal(b1-4)GlcNAc(b1-3)[Gal(b1-4)GlcNAc(b1-6)]Gal(b1-4)GlcNAc(b1-3)[Gal(b1-4)GlcNAc(b1-6)]Gal(b1-4)GlcNAc(b1-3)[Gal(b1-4)GlcNAc(b1-6)]Gal(b1-4)GlcNAc(b1-3)[Gal(b1-4)GlcNAc(b1-6)]Gal(b1-4)GlcNAc(b1-3)Gal(b1-4)Glc
In short: as §1

Gal(b1-6)GalNAc = biological target: Gal(b1-6)GalNAc
In short: as §1

[35] = biological target: Gal3S(b1-3)GalNAc(b1-4)Gal3S(b1-4)Glc
In short: as §1

[36] = biological target: Gal3S(b1-3)[Fuc(a1-4)]GlcNAc
In short: as §1

[37] = biological target: Gal3S(b1-3)[Fuc(a1-4)]GlcNAc(b1-3)Gal(b1-4)Glc
In short: as §1

Gal3S(b1-4)Glc = biological target: Gal3S(b1-4)Glc
In short: as §1

Gal3S(b1-4)GlcNAc = biological target: Gal3S(b1-4)GlcNAc
In short: as §1

[38] = biological target: Gal3S(b1-4)GlcNAc(b1-3)Gal
In short: as §1

B1: Dectin-1 (Mus musculus), Q6QLQ4 (protein)
chain: GHNSGRNPEEKDNFLSRNKENHKPTESSLDEKVAPSKASQTTGGFSQPCLPNWIMHGKSCYLFSFSGNSWYGSKRHCSQLGAHLLKIDNSKEFEFIESQTSSHRINAFWIGLSRNQSEGPWFWEDGSAFFPNSFQVRNTAPQESLLHNCVWIHGSEVYNQICNTSSYSICEKEL
B1 was tested, and the “glycan array binding signal (z-score)” value (Gal(b1-3)GlcNAc) was -0.088, the “glycan array binding signal (z-score)” value [1] was -0.043 and the “glycan array binding signal (z-score)” value [2] was -0.05. The “glycan array binding signal (z-score)” value [3] was 0.028, the “glycan array binding signal (z-score)” value [4] was -0.056 and the “glycan array binding signal (z-score)” value [5] was -0.091. The “glycan array binding signal (z-score)” value [6] was -0.091, the “glycan array binding signal (z-score)” value [7] was 0.102 and the “glycan array binding signal (z-score)” value [8] was -0.001. The “glycan array binding signal (z-score)” value [9] was 0.013, the “glycan array binding signal (z-score)” value [10] was -0.079 and the “glycan array binding signal (z-score)” value [11] was -0.072. The “glycan array binding signal (z-score)” value [12] was -0.068, the “glycan array binding signal (z-score)” value [13] was -0.054 and the “glycan array binding signal (z-score)” value [14] was -0.091. For the same binder, the “glycan array binding signal (z-score)” value [15] was -0.045, the “glycan array binding signal (z-score)” value [16] was -0.088 and the “glycan array binding signal (z-score)” value (Gal(b1-4)Glc) was -0.047. The “glycan array binding signal (z-score)” value (Gal(b1-4)GlcNAc) was -0.074, the “glycan array binding signal (z-score)” value [17] was -0.076 and the “glycan array binding signal (z-score)” value [18] was -0.054. For the same binder, the “glycan array binding signal (z-score)” value [19] was -0.091, the “glycan array binding signal (z-score)” value [20] was -0.091 and the “glycan array binding signal (z-score)” value [21] was -0.091. For the same binder, the “glycan array binding signal (z-score)” value [22] was -0.091, the “glycan array binding signal (z-score)” value [23] was -0.091 and the “glycan array binding signal (z-score)” value [24] was -0.091. The “glycan array binding signal (z-score)” value [25] was -0.067, the “glycan array binding signal (z-score)” value [26] was -0.033 and the “glycan array binding signal (z-score)” value (Gal(b1-4)GlcNAc(b1-3)Fuc) was -0.091. The “glycan array binding signal (z-score)” value [27] was -0.061, the “glycan array binding signal (z-score)” value [28] was 0.056 and the “glycan array binding signal (z-score)” value [29] was -0.091. The “glycan array binding signal (z-score)” value [30] was -0.084, the “glycan array binding signal (z-score)” value [31] was -0.064 and the “glycan array binding signal (z-score)” value [32] was -0.061. For the same binder, the “glycan array binding signal (z-score)” value [33] was -0.061, the “glycan array binding signal (z-score)” value [34] was -0.08 and the “glycan array binding signal (z-score)” value (Gal(b1-6)GalNAc) was -0.035. For the same binder, the “glycan array binding signal (z-score)” value [35] was -0.059, the “glycan array binding signal (z-score)” value [36] was -0.091 and the “glycan array binding signal (z-score)” value [37] was -0.091. For the same binder, the “glycan array binding signal (z-score)” value (Gal3S(b1-4)Glc) was -0.091, the “glycan array binding signal (z-score)” value (Gal3S(b1-4)GlcNAc) was -0.071 and the “glycan array binding signal (z-score)” value [38] was -0.091.
